Test results as given in publication PMC6919601, “Identification of Plasmodium dipeptidyl aminopeptidase allosteric inhibitors by high throughput screening” (PLoS ONE, 2019).
The campaign covered roughly 110,000 compounds. About 230 (0.21%) showed an effect of 50% or more. The list shows a part of the results.

target: DPAP1 (Plasmodium falciparum, UniProt Q8IIJ9); assay: primary screen, percent inhibition; read by cleavage of a fluorogenic dipeptide substrate; higher = more effect of the substance; parameters: species or system P. falciparum D10 trophozoite lysates; single well
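Further: 30 min substrate incubation versus DMSO and 10 µM JCP410 controls.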

Sequence of DPAP1 (Q8IIJ9 whole entry, looked up): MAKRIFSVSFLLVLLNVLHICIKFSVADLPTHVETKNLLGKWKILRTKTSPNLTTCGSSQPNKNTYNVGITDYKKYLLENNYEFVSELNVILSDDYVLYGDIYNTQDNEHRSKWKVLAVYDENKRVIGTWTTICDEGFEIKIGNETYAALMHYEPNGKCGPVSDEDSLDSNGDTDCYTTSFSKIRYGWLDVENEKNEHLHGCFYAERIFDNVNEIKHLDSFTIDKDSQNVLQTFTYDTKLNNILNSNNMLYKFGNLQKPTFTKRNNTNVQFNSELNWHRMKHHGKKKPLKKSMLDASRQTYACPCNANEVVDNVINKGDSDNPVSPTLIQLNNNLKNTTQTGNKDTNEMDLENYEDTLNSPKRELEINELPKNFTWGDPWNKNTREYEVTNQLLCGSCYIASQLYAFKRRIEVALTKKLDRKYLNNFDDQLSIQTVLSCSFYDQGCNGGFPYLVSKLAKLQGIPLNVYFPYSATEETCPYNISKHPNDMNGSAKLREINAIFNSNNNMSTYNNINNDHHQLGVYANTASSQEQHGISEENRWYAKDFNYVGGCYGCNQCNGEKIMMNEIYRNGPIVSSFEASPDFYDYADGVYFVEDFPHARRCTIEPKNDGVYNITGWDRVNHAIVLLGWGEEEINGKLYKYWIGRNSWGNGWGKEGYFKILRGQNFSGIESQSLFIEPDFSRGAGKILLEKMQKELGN

Compared with `CCCOc1ccccc1C(=O)N(Cc1sccc1C)C1CCS(=O)(=O)C1` (centres unmarked), `CC(C)(C)c1ccc(OCC(=O)N(Cc2cccs2)C2CCS(=O)(=O)C2)cc1` (centres unmarked) is lower in “% Inhibition @ 10 uM” value: 2.19% for the first, -5% for the second.

First: N#Cc1cc2c(nc1SCc1ccccc1Cl)CCCC2=O
Second: Cc1cc(Oc2nc3ccccn3c(=O)c2/C=C(\C#N)C(=O)N2CCCCC2)ccc1Cl
The “% Inhibition @ 10 uM” value of the first is lower: -2.16% for the first, 2.16% for the second.

First: Cn1c2ccc(Br)cc2c2nc3cc4ccccc4cc3nc21
Second: Cc1ccccc1C1=N/C(=C\c2ccc3ccccc3c2)C(=O)O1
The “% Inhibition @ 10 uM” value of the first is lower: 1.08% for the first, 2.72% for the second.

Going from `CCN1CCN(C(=O)C2CCCN(c3nn4cc(-c5ccc(C)cc5)nc4s3)C2)CC1` (centres unmarked) to `Cc1ccc2ncc(NC(=O)N3CCCCCC3)c(O)c2c1`, the “% Inhibition @ 10 uM” value falls from -1.14% to -2.84%.

Going from `CN(C)c1ccc(C=C2C(=O)NC(=S)NC2=O)cc1` to `O=C1NC(=S)N/C1=C/c1cc(Br)cc(Br)c1O`, the “% Inhibition @ 10 uM” value rises from -5.51% to 27.4%.

First: COc1ccc(-c2csc3ncn(CC(=O)Nc4cccc5ccccc45)c(=O)c23)cc1OC
Second: COc1ccccc1NC(=O)c1ccccc1NC(=O)c1cc(OC)c(OC)c(OC)c1
The “% Inhibition @ 10 uM” value of the first is higher: 0.163% for the first, -0.795% for the second.

Compared with `O=S(=O)(Cc1ccccc1F)c1oc(-c2ccc(F)cc2)nc1S(=O)(=O)c1ccccc1`, `O=C(NCc1nc2ccccc2n1Cc1c(F)cccc1Cl)c1ccccc1` is lower in “% Inhibition @ 10 uM” value: -1.44% for the first, -11.8% for the second.

Compared with `C=CCNC(=S)N(Cc1ccccc1)Cc1ccc(F)cc1`, `CNC(=S)N(CCc1c(C)[nH]c2ccccc12)Cc1cccs1` is higher in “% Inhibition @ 10 uM” value: -3.21% for the first, 2.75% for the second.

Going from `Oc1nc(/C=C/c2cccc(Cl)c2Cl)cc(C(F)(F)F)n1` to `FC(F)(F)c1cccc(N2CCN(Cc3cccc(Cl)c3)CC2)c1`, the “% Inhibition @ 10 uM” value falls from -2.48% to -3.65%.

First: COC(=O)c1c(C)[nH]c(C)c1-c1ccc(OC)cc1
Second: COc1ccc(OC)c(NC(=O)C(C)NS(=O)(=O)c2ccc(C)cc2)c1 (centres unmarked)
The “% Inhibition @ 10 uM” value of the first is lower: -5.36% for the first, -3.87% for the second.

Compared with `COCCCn1c(=N)c(C(=O)NCc2ccccc2)cc2c(=O)n3ccccc3nc21`, `N#C/C(=C\c1c(Oc2ccccc2Cl)nc2ccccn2c1=O)C(=O)NCCc1ccccc1` is lower in “% Inhibition @ 10 uM” value: 1.97% for the first, -4% for the second.

Going from `COc1ccc(CN(C(=O)COc2ccc(Cl)cc2C)C2CCS(=O)(=O)C2)cc1OC` (centres unmarked) to `COc1ccc(C)cc1N(CC(=O)Nc1ccc2ccccc2c1)S(C)(=O)=O`, the “% Inhibition @ 10 uM” value rises from -5% to -3.46%.

First: O=C(Nc1nc(-c2ccc(S(=O)(=O)N3CCOCC3)cc2)cs1)c1cccs1
Second: O=C(Nc1ccccc1-c1nc2ccccc2s1)c1ccc(S(=O)(=O)N2CCCCC2)cc1
The “% Inhibition @ 10 uM” value of the first is lower: -8.53% for the first, 2.86% for the second.

Going from `CC1(C)N=C(N)NC(Nc2ccccc2)=N1` to `Cc1ccc(NC(=O)c2ccccc2)cc1F`, the “% Inhibition @ 10 uM” value falls from 0.162% to -1.05%.

First: O=S(=O)(c1ccccc1)c1nnn2c1nc(NC1CCN(Cc3ccccc3)CC1)c1ccccc12
Second: c1ccc(CCN2CCN(Cc3ccccc3)CC2)cc1
The “% Inhibition @ 10 uM” value of the first is higher: -2.14% for the first, -3.57% for the second.

Going from `CCOC(=O)N1CCN(c2c(N3CCN(C(=O)OCC)CC3)c(=O)c2=O)CC1` to `CC(=O)c1ccc(N2CCN(C(=O)c3ccc(Br)cc3)CC2)c(F)c1`, the “% Inhibition @ 10 uM” value rises from -3.21% to -2.28%.

Going from `CS(=O)(=O)N1CCC(C(=O)NCc2cccnc2)CC1` to `CCOC(=O)C1CCN(c2ccc(C(F)(F)F)cn2)CC1`, the “% Inhibition @ 10 uM” value rises from -6.59% to -0.711%.

Going from `COc1ccc(NC(=O)/C(=C/c2ccco2)NC(=O)c2ccc(C)c(C)c2)cc1` to `COc1ccc(NS(=O)(=O)c2cccc(C(=O)Nc3ccc(C(=O)O)cc3)c2)cc1`, the “% Inhibition @ 10 uM” value falls from 5.67% to -3.66%.

First: CCOc1ccccc1C1C(C(=O)OC)=CN(C)C=C1C(=O)OC
Second: Cc1ccccc1C(=O)NC1=NC(=O)C(C)S1 (centres unmarked)
The “% Inhibition @ 10 uM” value of the first is lower: -3.23% for the first, 3.59% for the second.

Compared with `O=C(Cn1cc(S(=O)(=O)Cc2cccc(C(F)(F)F)c2)c2ccccc21)N1CCCC1`, `O=C(Cn1c(SCc2ccccc2)nc2ccccc21)N1CCOCC1` is lower in “% Inhibition @ 10 uM” value: 0.292% for the first, -5.51% for the second.

Compared with `COc1cc(/C=C2/SC(=O)N(C(C)C)C2=O)cc(OC)c1O`, `COc1ccc(/C=C2\C(=N)N3N=C(S(C)(=O)=O)SC3=NC2=O)cc1` is lower in “% Inhibition @ 10 uM” value: -1.6% for the first, -5.27% for the second.

Going from `CC(=O)Nc1ccc(S(=O)(=O)Nc2ccc3c(c2)oc2ccccc23)cc1` to `COc1nccnc1NS(=O)(=O)c1ccc(NC(=O)c2ccccc2Cl)cc1`, the “% Inhibition @ 10 uM” value falls from 2.44% to 1.24%.

Compared with `CC[C@@H](C)[C@H](NC(=O)c1ccc2ccccc2c1)C(=O)N[C@@H](CCc1ccccc1)C(=O)COCc1ccccc1`, `CC(=O)NCCCCCc1nc2ccccc2n1Cc1ccccc1` is higher in “% Inhibition @ 10 uM” value: -7.36% for the first, -3.49% for the second.

Compared with `CCCCOc1ccc(CNC2=NS(=O)(=O)C(c3ccc(C(C)C)cc3)=C2C)cc1`, `Cc1ccc2ncc(S(=O)(=O)c3ccc(C(C)C)cc3)c(O)c2c1` is lower in “% Inhibition @ 10 uM” value: -1.08% for the first, -3.45% for the second.

Going from `Cc1cccc2sc(NC(=O)COc3ccccc3)nc12` to `Cc1cccc(-c2nc(CSCC(=O)NCc3ccccc3)c(C)o2)c1`, the “% Inhibition @ 10 uM” value rises from -3.45% to 2.16%.

First: O=C1CC(=O)N2N=C(c3ccccc3)SC2=N1
Second: CN(C)S(=O)(=O)c1ccc(-c2csc(-c3ccccc3)n2)cc1
The “% Inhibition @ 10 uM” value of the first is higher: 1.88% for the first, -2.19% for the second.

Compared with `O=C(/C=C/c1ccc([N+](=O)[O-])cc1)c1ccc(-c2ccccc2)cc1`, `O=C(Nc1ccc(-c2ccc([N+](=O)[O-])cc2)cc1)c1ccc(F)cc1` is higher in “% Inhibition @ 10 uM” value: -0.239% for the first, 5.64% for the second.

Going from `O=C(/C=C/c1ccc(Cl)cc1)NCCc1nc2ccccc2[nH]1` to `O=C1CC(c2ccc(Cl)cc2)Nc2nc3ccccc3n21` (centres unmarked), the “% Inhibition @ 10 uM” value falls from 4.1% to 3.35%.

Compared with `CCOc1ccc(N2C(=O)/C(=C/c3ccco3)C(=O)NC2=S)cc1`, `CCOc1ccc(C2C3=C(CC(C)(C)CC3=O)OC3=C2C(=O)CC(C)(C)C3)cc1` is lower in “% Inhibition @ 10 uM” value: 5.2% for the first, -5.15% for the second.

First: CCOC(=O)c1cnn(-c2nc(C)nc3sc(-c4ccccc4)cc23)c1/N=C/N(C)C
Second: Cc1nc2sc(C(=O)c3ccccc3)c(N)c2c(C)c1C
The “% Inhibition @ 10 uM” value of the first is lower: -3.41% for the first, -1.97% for the second.

Compared with `CC1CCCC(C)N1CCNC(=O)CCn1nc(-c2ccc(Cl)cc2)ccc1=O` (centres unmarked), `Cc1nn(CC(=O)NCCN2CCOCC2)c(=O)c2nn(-c3ccccc3)c(C)c12` is lower in “% Inhibition @ 10 uM” value: 1.62% for the first, -7.53% for the second.

First: Cc1c(CNCCN(C)C)c(C(=O)O)c(C)n1Cc1ccccc1F
Second: CCN(CCN(C)C)Cc1ccccc1C
The “% Inhibition @ 10 uM” value of the first is lower: -5.49% for the first, -1.64% for the second.

Going from `CC(NS(=O)(=O)c1c(Cl)cccc1Cl)C(=O)O` (centres unmarked) to `CC(C)N(C(=O)Nc1cccc(Cl)c1)C(C)C`, the “% Inhibition @ 10 uM” value falls from 3.16% to 1.55%.

Going from `CCC(=O)Nc1c(N)sc2nc(C)cc(COC)c12` to `CCC(=O)Nc1sc2c(c1C#N)CCC(CC)C2` (centres unmarked), the “% Inhibition @ 10 uM” value falls from -0.0678% to -5.14%.

Going from `O=c1oc2ccccc2cc1-c1nc(-c2ccc(Cl)cc2)no1` to `Cn1cnc2c(=O)oc3ccc(S(=O)(=O)NCc4ccccc4)cc3c21`, the “% Inhibition @ 10 uM” value rises from -4.63% to -1.14%.

Compared with `COc1ccc(/C=c2\sc3nncn3c2=O)cc1`, `CCCc1nn2c(=O)cc(COc3ccc(/C=C4\C(=N)N5N=C(C)SC5=NC4=O)cc3)nc2s1` is lower in “% Inhibition @ 10 uM” value: 4.95% for the first, -3.95% for the second.

Going from `O=C1CC(N2CCN(c3cccc(Cl)c3)CC2)C(=O)N1c1ccc(F)cc1` (centres unmarked) to `Fc1ccc(N2CCN(Cc3cccc4ccccc34)CC2)cc1`, the “% Inhibition @ 10 uM” value falls from 0.144% to -3.71%.

Going from `CC(C)CCNC(=O)Cn1cnc2c1c(=O)n(C)c(=O)n2C` to `Cc1ccc(NC(=O)c2ccc3c(c2)C(=O)N(CC(C)C)C3=O)c(C(=O)O)c1`, the “% Inhibition @ 10 uM” value rises from -5.06% to -0.796%.

Compared with `CC(C)Cn1c(CCC(=O)O)ccc1-c1ccccc1`, `Cc1ccc(OC(C)C(=O)Nc2ccccc2Cl)cc1` (centres unmarked) is lower in “% Inhibition @ 10 uM” value: 3.94% for the first, -0.95% for the second.

Going from `CC1=Nc2c([nH]c3ccccc23)-c2cc(C)ccc2N1` to `CC(=O)NCCSc1c(-c2ccc(C)cc2)[nH]c2ccccc12`, the “% Inhibition @ 10 uM” value falls from 9.92% to -0.228%.

Going from `c1ccc(CN2CCN(C3Cc4ccccc4C3)CC2)cc1` to `N#C/C(=C\c1ccc(Cl)cc1)C(=O)Nc1nc2c(s1)CN(Cc1ccccc1)CC2`, the “% Inhibition @ 10 uM” value rises from -3.27% to 3.79%.

First: CCCc1cc(O)n2nc(-c3cccnc3)nc2n1
Second: Cc1cccc(OCCCc2c(C)n[nH]c2C)c1
The “% Inhibition @ 10 uM” value of the first is higher: 2.62% for the first, 1.9% for the second.

Compared with `Cc1cccc(-c2nnc(C3CCN(S(=O)(=O)c4c(F)c(F)c(F)c(F)c4F)CC3)o2)c1`, `CC1=CC2=NC(=O)/C(=C\c3cc(C)n(-c4ccc(C)c(Cl)c4)c3C)C(=N)N2O1` is lower in “% Inhibition @ 10 uM” value: -2.88% for the first, -3.23% for the second.

Compared with `CCC(C)NC(=O)CCNS(=O)(=O)c1ccc(OC)cc1` (centres unmarked), `CC(C)C[C@H](OC(=O)N[C@@H]1C[C@H]1c1ccccc1)C(=O)NCC#N` is higher in “% Inhibition @ 10 uM” value: -4.06% for the first, 3.66% for the second.

Going from `CC/C(=N/OC(=O)c1cccc(C)c1)C(=O)c1cccs1` to `CC(=O)c1cccc(NC(=O)CSCc2cccc(Br)c2)c1`, the “% Inhibition @ 10 uM” value falls from 0.343% to -3.55%.

Compared with `CCCCCCOc1ccc(CN(CCO)CCO)cc1`, `CCN(CC)CCCNC(=O)CNC(=S)N(CCCN1CCOCC1)Cc1cccs1` is higher in “% Inhibition @ 10 uM” value: -2.95% for the first, 4.47% for the second.

Going from `COC(=O)c1ccc(/C=C/c2nc3cc(C)c(C)cc3o2)cc1` to `Cc1cc(C)c(-c2[nH]nc3c2C(c2ccc(Br)cc2)N(CCO)C3=O)c(O)c1` (centres unmarked), the “% Inhibition @ 10 uM” value rises from -7.99% to -1.71%.

First: CC(C)Nc1nc(Cl)nc(NC(C)(C)CO)n1
Second: Cc1ccsc1CN(C)CCN(C)C
The “% Inhibition @ 10 uM” value of the first is lower: -1.82% for the first, 4.55% for the second.

Compared with `COc1ccc(N2CCN(C(=O)c3ccc4ccccc4n3)CC2)cc1`, `C/C(=N\CCCN1CCOCC1)c1c(C)nn(-c2ccc(Br)cc2Br)c1O` is lower in “% Inhibition @ 10 uM” value: -1.36% for the first, -4.21% for the second.
